In patent US20250179210A1, “ANTI-CEACAM5 ANTIBODIES AND CONJUGATES AND USES THEREOF” (Merck Patent GmbH, priority 2022, published 2025) one finds anti-tumor efficacy data, which are given here for one molecule.

For the assay, the system named is human patient-derived gastric xenograft model GAPF313. The assay can be described thus: Gastric PDX mouse model GAPF313. The class given is in vivo. To be noted: interim analysis; ADC1 4 mg/kg or 7 mg/kg Q2W×3, ADC SAR DM4 4.7 mg/kg Q2W×3, i.v. As to the method:
Anti-tumor efficacy in vivo was evaluated in the human patient-derived gastric xenograft model GAPF313 (Shanghai LideBiotech CO., LTD). Tumor fragments were transplanted subcutaneously into the right flank of six to eight weeks old immunodeficient female mice (NU-Foxn1nu, Charles River). […] Tumor length (L) and width (W) were measured with calipers and tumor volumes were calculated using the formula L×(W^2)/2.
Anti-tumor efficacy of ADC1-M and ADC3-M in comparison to ADC SAR DM4 has been evaluated in the human GC xenograft model GAPF313. The study was performed at Lide Biotech (Shanghai). Six to eight weeks old immunodeficient female mice (Crl: NU-Foxn1nu) were transplanted subcutaneously in the right flank with GAPF313 tumor fragments. When tumors reached a mean volume of 176 mm^3 6 mice/group were treated intravenously every other week (3 cycles) with vehicle (saline solution) or with 4 mg/kg ADC1-M or ADC3-M or 4.7 mg/kg ADC SAR DM4. Tumor length (L) and width (W) were measured with calipers and tumor volumes were calculated using L×W^2/2.

B1: ADC1 (conjugate)
heavy: EVQLQESGPGLVKPSQTLSLTCTVSDGSVSRGGYYLTWIRQHPGKGLEWIGYIYYSGSTYFNPSLRSRVTMSVDTSKNQFSLKLSSVTAADTAVYYCARGIAVAPFDYWGQGTLVTVSSASTKGPSVFPLAPSSKSTSGGTAALGCLVKDYFPEPVTVSWNSGALTSGVHTFPAVLQSSGLYSLSSVVTVPSSSLGTQTYICNVNHKPSNTKVDKRVEPKSCDKTHTCPPCPAPPVAGPSVFLFPPKPKDTLMISRTPEVTCVVVDVSHEDPEVKFNWYVDGVEVHNAKTKPREEQYNSTYRVVSVLTVLHQDWLNGKEYKCKVSNKALPSSIEKTISKAKGQPREPQVYTLPPSREEMTKNQVSLTCLVKGFYPSDIAVEWESNGQPENNYKTTPPVLDSDGSFFLYSKLTVDKSRWQQGNVFSCSVMHEALHNHYTQKSLSLSPG
light: EIVLTQSPATLSVSPGERATLSCRTSQSVRSNLAWYQQKPGQAPRLLIYAASTRATGIPARFSGSGSGTEFTLTISSLQSEDFAVYYCQQYTNWPFTFGPGTKVDIKRTVAAPSVFIFPPSDEQLKSGTASVVCLLNNFYPREAKVQWKVDNALQSGNSQESVTEQDSKDSTYSLSSTLTLSKADYEKHKVYACEVTHQGLSSPVTKSFNRGEC
Consider B1, for which the anti-tumor efficacy result is reported as “clear anti-tumor efficacy”.
